# Experimental data from PubChem BioAssay AID488969 (Vanderbilt High Throughput Screening Facility, 2010).
# In all, about 110,000 compounds were measured (“z-score”: median about -0.1, highest 2% from about 2 on). This is one part of the list.
# Target: Metabotropic glutamate receptor 8 (Rattus norvegicus) (UniProt P70579)
# Experiment: rat mGluR8 modulators via GIRK flux, primary screen, cell-based, thallium flux, HTS (AID 488969)
# Conditions: HEK293 rat mGluR8, GIRK (G protein-gated inwardly rectifying potassium channel) thallium flux, FluoZin2; at 10 µM; stronger effect = higher value; submaximal glutamate (EC20) added with thallium
# Chain of UniProt P70579 (P70579 whole entry, looked up): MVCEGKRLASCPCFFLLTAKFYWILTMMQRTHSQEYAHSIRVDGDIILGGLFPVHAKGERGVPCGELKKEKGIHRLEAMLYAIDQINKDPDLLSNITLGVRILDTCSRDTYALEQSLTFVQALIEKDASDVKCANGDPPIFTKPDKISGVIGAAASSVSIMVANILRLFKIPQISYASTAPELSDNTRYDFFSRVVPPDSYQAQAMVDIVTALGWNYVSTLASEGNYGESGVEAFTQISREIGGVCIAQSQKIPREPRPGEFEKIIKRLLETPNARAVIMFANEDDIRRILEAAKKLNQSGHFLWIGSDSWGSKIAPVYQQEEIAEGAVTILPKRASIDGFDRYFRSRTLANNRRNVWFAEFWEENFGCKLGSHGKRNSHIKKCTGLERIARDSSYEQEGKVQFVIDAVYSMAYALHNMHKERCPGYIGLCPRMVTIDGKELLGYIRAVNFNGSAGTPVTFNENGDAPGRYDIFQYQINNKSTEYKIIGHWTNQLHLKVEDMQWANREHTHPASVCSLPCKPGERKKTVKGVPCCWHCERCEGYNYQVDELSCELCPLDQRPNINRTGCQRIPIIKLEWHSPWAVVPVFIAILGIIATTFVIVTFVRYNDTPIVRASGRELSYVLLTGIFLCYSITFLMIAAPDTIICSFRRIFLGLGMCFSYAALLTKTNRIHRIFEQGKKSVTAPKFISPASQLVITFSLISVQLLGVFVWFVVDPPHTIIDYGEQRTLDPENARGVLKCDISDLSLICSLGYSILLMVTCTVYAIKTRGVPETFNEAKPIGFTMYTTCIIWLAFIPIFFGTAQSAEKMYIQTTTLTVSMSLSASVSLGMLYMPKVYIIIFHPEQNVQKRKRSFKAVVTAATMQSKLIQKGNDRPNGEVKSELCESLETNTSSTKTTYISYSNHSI
row,Structure (SMILES),z-score
1,Cc1csc(SCC(=O)c2c(N)n(C)c(=O)n(C)c2=O)n1,-0.529
2,CCOC(=O)c1ccccc1NS(=O)(=O)c1ccc(OC)cc1,-0.146
3,Cc1cc2c(cc1C)[n+](C)cn2CC(O)COCc1ccccc1 (stereo not given),-0.104
4,O=C(CNC(=S)N(CCCN1CCOCC1)Cc1cccs1)N1CCOCC1,-0.293
5,O=c1c2ccccc2nnn1CSc1nnc(-c2cccnc2)n1-c1ccccc1F,-0.219
6,COc1cc(CNC(C)(C)CO)cc(Br)c1OCc1ccc(Cl)cc1Cl,0.447
7,O=C1c2ccccc2C(=O)N1OCc1ccccc1,-0.335
8,Cc1c(NC(=S)NC(=O)c2cc3ccccc3o2)c(=O)n(-c2ccccc2)n1C,-0.114
9,Cc1cc(/C=C(\C#N)C(=O)NCC2CCCO2)c(C)n1-c1ccc(Cl)cc1 (stereo not given),-0.63
10,N#Cc1nc(Cc2ccccc2)oc1NCc1cccnc1,0.17
11,CCN(CC)Cc1cc(CCNC(=O)c2ccc(Cl)cc2)ccc1O,0.602
12,COc1ccc(Nc2ncccc2C(=O)Nc2ccccc2)cc1,0.0827
13,CCCCCC(=O)Nc1ccc2ccccc2c1,-0.136
14,CNC(=S)N/N=C/c1cccc(OCc2ccccc2F)c1,0.523
15,COc1ccc(C(=O)Nc2sc(C)c(-c3ccccc3)c2C#N)cc1OC,-0.228
16,Cc1ccccc1C(=O)c1cccn1CC(=O)NCC1CCCO1 (stereo not given),-0.18
17,COc1ccc(C(C)=O)cc1CSc1nncn1-c1ccccc1,-0.205
18,O=C(Nc1ccc([N+](=O)[O-])cc1)c1nc[nH]c1C(=O)NC1CCCCC1,-0.0461
19,CCN(CC)CCNC(=O)c1ccc(N2CCCCC2)c(NS(=O)(=O)c2ccc(C)cc2)c1,2.96
20,O=C(OC1CCCCC1)c1ccc(NC(=O)C2CCCCC2)cc1,0.0485
21,COC(=O)c1ccc(NC(=O)COc2ccc(C3C(C#N)=C(N)Oc4c3ccc3ccccc43)cc2OC)cc1 (stereo not given),-0.108
22,Cc1ccc(CCSc2ccc(C(C)C)cc2)cn1,-0.399
23,CCOC(=O)c1nnn(-c2nonc2N)c1CS(=O)(=O)c1ccccc1,1.2
24,S=C(NCCN1CCOCC1)Nc1ccccc1Cl,-0.238
25,Cc1c(N/N=C(\C#N)C(=O)c2ccccc2)c(=O)n(-c2ccccc2)n1C,0.187
26,COc1ccc(CCNc2oc(COc3ccc(Br)cc3)nc2C#N)cc1OC,-0.269
27,COc1ccc(NC(=O)CN2c3cccc4cccc(c34)S2(=O)=O)cc1,-0.497
28,Cc1nn2c3c(cnc2c1-c1ccccc1)C(=O)CC(c1ccco1)C3 (stereo not given),-0.497

row,Structure (SMILES),z-score
1,CCCCC(=O)Nc1ccc(NC(=S)NC(=O)c2cccs2)cc1OC,1.85
2,Cc1cc([N+](=O)[O-])c(N2CCC[C@@H]2C(=O)O)c([N+](=O)[O-])c1,-0.356
3,Cc1cccc(C(=O)NC(=S)Nc2ccc(S(=O)(=O)N(C)c3ccccc3)cc2)c1,1.39
4,COCCCNC(=O)c1cn(CC(C)C)c(=O)c2c1c1ccccc1n2C,-0.0987
5,CCc1nc(SCC(=O)Nc2c(C)nn(C)c2C)c2cnn(-c3ccccc3)c2n1,-0.873
6,O=C(NC1CCCCC1)C(c1ccccc1)N1CCc2ccccc21 (stereo not given),0.0677
7,S=C(NCCc1ccccc1)NCCc1ccccc1,-0.0491
8,O=C(Nc1ccccc1)Nc1ccccc1C(=O)NCc1ccco1,0.367
9,O=C(CCOc1ccccc1)Nc1cccc(S(=O)(=O)Nc2ccccc2Cl)c1,0.291
10,O=C(CSc1nc(-c2ccccc2)c(-c2ccccc2)[nH]1)Nc1ccc2c(c1)OCO2,-0.21
11,Cc1cc(C)n(Cc2ccccc2Cl)n1,-0.335
12,CC(=O)N1CCN(c2ccc(Nc3ncnc4c3oc3ccccc34)cc2)CC1,-0.134
13,Cn1c(N)c(C(=O)COC(=O)c2ccc3c(c2)OCCO3)c(=O)n(C)c1=O,0.00498
14,CC1(C)C(=O)OC(c2ccccc2)C2(CCCC2)C1=O (stereo not given),-0.477
15,c1ccc(C(c2nnnn2Cc2ccco2)N2CCN(c3nc4ccccc4s3)CC2)cc1 (stereo not given),0.814
16,CCCCSc1nnc([C@@H](NC(=O)OC(C)(C)C)C(C)C)o1,0.185
17,O=C(Nc1cnn(Cc2ccc(Cl)cc2Cl)c1)c1cc(-c2cccs2)on1,-0.108
18,CN1CCC(N2CCCC(C(=O)O)C2)CC1 (stereo not given),-0.282
19,COc1cc(NC(=O)c2c3c(nc4ccccc24)CCC3)cc(OC)c1,0.174
20,CC1(C)Cc2nc3sc4c(OCc5ccccc5)ncnc4c3cc2CO1,-0.0531
21,Cn1ncc(C#N)c1/N=C/N1CCOCC1,-0.742
22,CC1=CC(C)(C)N2C(=O)C3(C(C#N)=C(N)Oc4cc(O)ccc43)c3c(C)c(C)cc1c32 (stereo not given),0.981
23,CCOc1ccc(/C=N/NC(=O)c2cc(-c3ccco3)nc3ccccc23)cc1,0.00219
24,CCCC12CN3CC(C)(CN(C1)C31C(=O)Nc3ccc(C)cc31)C2=O (stereo not given),0.6
25,CCCCNC(=O)Nc1ccccn1,-0.557
26,Cc1ccc(CN2CCN(C(=O)c3ccco3)CC2)cc1,0.292
27,N#Cc1cnn(-c2nc3sc4c(c3c(=O)[nH]2)CCCC4)c1N,0.11
